Assay results as given in the supplement of paper PMC4967469.
IC50 is the fitted dose that halves viability relative to control wells, and lower means more sensitive; fits outside the tested doses are given as limits. AUC, from the same fit, is the share of area under the viability curve across the 256-fold dose range: 1 means no effect, lower means more sensitive. Any top dose called inferred was derived from the fitted curves, not read from the paper. For some assays here: An entry number marks a drug with two screens in the source, which often give different values.

Assays:
Experiment in all cases: Viability of human cancer cell lines after 72 h of drug (GDSC screen)
[1] = compound: Cc1cc([C@@H](C)Nc2ccccc2C(=O)O)c2nc(N3CCOCC3)cc(=O)n2c1 [AZD6482]
Method: (§1)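 Human cancer cell lines in 384-well plates, medium with 10% serum, drug for 72 h over a 256-fold dose range (nine 2-fold or five 4-fold steps up to the top dose). Adherent lines were fixed and stained with the nucleic acid dye Syto60, suspension lines read with resazurin; signal relative to control wells, capped at 0 and 100%. One two-parameter sigmoid per drug and line, fitted in a mixed model over all curves with the slope shared within a line.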

[2] = compound: COc1cc(C(=O)NC2CCN(C)CC2)ccc1Nc1ncc2c(n1)N(C1CCCC1)CCC(=O)N2C(C)C [XMD11-85h]; settings: top dose 10 µM; top dose inferred
Method: as §1

[3] = compound: Cn1ncnc1[C@H]1c2n[nH]c(=O)c3cc(F)cc(c23)N[C@@H]1c1ccc(F)cc1 [BMN-673]; settings: top dose 10 µM; top dose inferred
Method: as §1

[4] = top dose 5 µM, screen: GDSC drug entry 1066, top dose inferred
[5] = top dose 5.12 µM, screen: GDSC drug entry 156

EMC-BAC-2 (lung adenocarcinoma, adherent)
AUC [1, 4]: 0.882 | IC50 [1, 4]: > 5 µM | AUC [2]: 0.921 | IC50 [2]: > 10 µM | AUC [3]: 0.61 | IC50 [3]: 1.33 µM

JIMT-1 (breast, adherent)
AUC [1, 4]: 0.904 | IC50 [1, 4]: > 5 µM | AUC [1, 5]: 0.976 | IC50 [1, 5]: > 5.12 µM | AUC [2]: 0.974 | IC50 [2]: > 10 µM | AUC [3]: 0.734 | IC50 [3]: 3.1 µM

KMRC-20 (kidney, adherent)
AUC [1, 4]: 0.922 | IC50 [1, 4]: > 5 µM | AUC [1, 5]: 0.982 | IC50 [1, 5]: > 5.12 µM | AUC [2]: 0.982 | IC50 [2]: > 10 µM | AUC [3]: 0.942 | IC50 [3]: > 10 µM

CaR-1 (large intestine, adherent)
AUC [1, 4]: 0.76 | IC50 [1, 4]: 2.67 µM | AUC [1, 5]: 0.896 | IC50 [1, 5]: > 5.12 µM | AUC [2]: 0.961 | IC50 [2]: > 10 µM | AUC [3]: 0.775 | IC50 [3]: 6.21 µM

CGTH-W-1 (thyroid, adherent)
AUC [1, 4]: 0.968 | IC50 [1, 4]: > 5 µM | AUC [1, 5]: 0.84 | IC50 [1, 5]: 3.48 µM | AUC [2]: 0.979 | IC50 [2]: > 10 µM | AUC [3]: 0.777 | IC50 [3]: 3.99 µM

8505C (thyroid, adherent)
AUC [1, 4]: 0.938 | IC50 [1, 4]: > 5 µM | AUC [1, 5]: 0.937 | IC50 [1, 5]: > 5.12 µM | AUC [2]: 0.959 | IC50 [2]: > 10 µM | AUC [3]: 0.826 | IC50 [3]: 6.57 µM

D-336MG (glioma, adherent)
AUC [1, 4]: 0.702 | IC50 [1, 4]: 1.37 µM | AUC [1, 5]: 0.66 | IC50 [1, 5]: 1.02 µM | AUC [2]: 0.948 | IC50 [2]: > 10 µM | AUC [3]: 0.898 | IC50 [3]: > 10 µM

UACC-62 (melanoma, adherent)
AUC [1, 4]: 0.732 | IC50 [1, 4]: 1.42 µM | AUC [1, 5]: 0.804 | IC50 [1, 5]: 2.52 µM | AUC [2]: 0.916 | IC50 [2]: > 10 µM | AUC [3]: 0.829 | IC50 [3]: 6.14 µM

KATOIII (stomach, semi-adherent)
AUC [1, 4]: 0.978 | IC50 [1, 4]: > 5 µM | AUC [2]: 0.972 | IC50 [2]: > 10 µM | AUC [3]: 0.987 | IC50 [3]: > 10 µM

OACp4C (oesophagus, adherent)
AUC [1, 4]: 0.965 | IC50 [1, 4]: > 5 µM | AUC [2]: 0.951 | IC50 [2]: > 10 µM | AUC [3]: 0.765 | IC50 [3]: 4.36 µM

CL-11 (large intestine, adherent)
AUC [1, 4]: 0.949 | IC50 [1, 4]: > 5 µM | AUC [1, 5]: 0.986 | IC50 [1, 5]: > 5.12 µM | AUC [2]: 0.951 | IC50 [2]: > 10 µM | AUC [3]: 0.851 | IC50 [3]: 9.16 µM

A2058 (melanoma, adherent)
AUC [1, 5]: 0.859 | IC50 [1, 5]: 3.54 µM | AUC [2]: 0.947 | IC50 [2]: > 10 µM | AUC [3]: 0.135 | IC50 [3]: 0.0537 µM

HSC-4 (head and neck, adherent)
AUC [1, 4]: 0.882 | IC50 [1, 4]: > 5 µM | AUC [1, 5]: 0.916 | IC50 [1, 5]: > 5.12 µM | AUC [2]: 0.854 | IC50 [2]: > 10 µM | AUC [3]: 0.478 | IC50 [3]: 0.536 µM

NCI-H292 (lung adenocarcinoma, adherent)
AUC [1, 4]: 0.653 | IC50 [1, 4]: 0.912 µM | AUC [1, 5]: 0.785 | IC50 [1, 5]: 2.7 µM | AUC [2]: 0.779 | IC50 [2]: 5 µM | AUC [3]: 0.38 | IC50 [3]: 0.272 µM

NCI-H1755 (lung adenocarcinoma, adherent)
AUC [1, 4]: 0.774 | IC50 [1, 4]: 2.29 µM | AUC [1, 5]: 0.729 | IC50 [1, 5]: 1.61 µM | AUC [2]: 0.953 | IC50 [2]: > 10 µM | AUC [3]: 0.83 | IC50 [3]: 7.71 µM

A388 (skin, adherent)
AUC [1, 4]: 0.901 | IC50 [1, 4]: > 5 µM | AUC [1, 5]: 0.936 | IC50 [1, 5]: > 5.12 µM | AUC [2]: 0.968 | IC50 [2]: > 10 µM | AUC [3]: 0.902 | IC50 [3]: > 10 µM

Hey (ovary, adherent)
AUC [1, 4]: 0.978 | IC50 [1, 4]: > 5 µM | AUC [2]: 0.979 | IC50 [2]: > 10 µM | AUC [3]: 0.818 | IC50 [3]: 5.24 µM

FADU (head and neck, adherent)
AUC [1, 4]: 0.944 | IC50 [1, 4]: > 5 µM | AUC [1, 5]: 0.93 | IC50 [1, 5]: > 5.12 µM | AUC [2]: 0.962 | IC50 [2]: > 10 µM | AUC [3]: 0.475 | IC50 [3]: 0.537 µM

CAL-12T (non-small cell lung carcinoma, adherent)
AUC [1, 4]: 0.89 | IC50 [1, 4]: > 5 µM | AUC [1, 5]: 0.915 | IC50 [1, 5]: > 5.12 µM | AUC [2]: 0.966 | IC50 [2]: > 10 µM | AUC [3]: 0.821 | IC50 [3]: 6.71 µM

NCI-N87 (stomach, adherent)
AUC [1, 4]: 0.898 | IC50 [1, 4]: > 5 µM | AUC [2]: 0.94 | IC50 [2]: > 10 µM | AUC [3]: 0.857 | IC50 [3]: > 10 µM

SCC90 (head and neck, adherent)
AUC [1, 4]: 0.981 | IC50 [1, 4]: > 5 µM | AUC [1, 5]: 0.859 | IC50 [1, 5]: > 5.12 µM | AUC [2]: 0.964 | IC50 [2]: > 10 µM | AUC [3]: 0.908 | IC50 [3]: > 10 µM

A427 (non-small cell lung carcinoma, adherent)
AUC [1, 4]: 0.951 | IC50 [1, 4]: > 5 µM | AUC [1, 5]: 0.668 | IC50 [1, 5]: 0.944 µM | AUC [2]: 0.965 | IC50 [2]: > 10 µM | AUC [3]: 0.95 | IC50 [3]: > 10 µM

HuP-T4 (pancreas, adherent)
AUC [1, 4]: 0.843 | IC50 [1, 4]: 3.85 µM | AUC [1, 5]: 0.984 | IC50 [1, 5]: > 5.12 µM | AUC [2]: 0.908 | IC50 [2]: > 10 µM | AUC [3]: 0.685 | IC50 [3]: 2.13 µM

OC-314 (ovary, adherent)
AUC [1, 4]: 0.931 | IC50 [1, 4]: > 5 µM | AUC [2]: 0.941 | IC50 [2]: > 10 µM | AUC [3]: 0.428 | IC50 [3]: 0.41 µM

CP50-MEL-B (melanoma, adherent)
AUC [1, 4]: 0.93 | IC50 [1, 4]: > 5 µM | AUC [1, 5]: 0.988 | IC50 [1, 5]: > 5.12 µM | AUC [2]: 0.965 | IC50 [2]: > 10 µM | AUC [3]: 0.768 | IC50 [3]: 3.71 µM

LC-1-sq (lung squamous cell carcinoma, adherent)
AUC [1, 4]: 0.935 | IC50 [1, 4]: > 5 µM | AUC [1, 5]: 0.982 | IC50 [1, 5]: > 5.12 µM | AUC [2]: 0.975 | IC50 [2]: > 10 µM | AUC [3]: 0.93 | IC50 [3]: > 10 µM

TOV-112D (ovary, adherent)
AUC [1, 4]: 0.926 | IC50 [1, 4]: > 5 µM | AUC [1, 5]: 0.884 | IC50 [1, 5]: > 5.12 µM | AUC [2]: 0.913 | IC50 [2]: > 10 µM | AUC [3]: 0.681 | IC50 [3]: 2.02 µM

MZ2-MEL (melanoma, adherent)
AUC [1, 4]: 0.967 | IC50 [1, 4]: > 5 µM | AUC [1, 5]: 0.89 | IC50 [1, 5]: > 5.12 µM | AUC [2]: 0.94 | IC50 [2]: > 10 µM | AUC [3]: 0.838 | IC50 [3]: 8.48 µM

JEG-3 (urogenital system, adherent)
AUC [1, 4]: 0.934 | IC50 [1, 4]: > 5 µM | AUC [1, 5]: 0.991 | IC50 [1, 5]: > 5.12 µM | AUC [2]: 0.988 | IC50 [2]: > 10 µM | AUC [3]: 0.756 | IC50 [3]: 3.13 µM

SKN (uterus, adherent)
AUC [1, 4]: 0.727 | IC50 [1, 4]: 1.6 µM | AUC [1, 5]: 0.629 | IC50 [1, 5]: 0.783 µM | AUC [2]: 0.961 | IC50 [2]: > 10 µM | AUC [3]: 0.81 | IC50 [3]: 6.65 µM

RVH-421 (melanoma, adherent)
AUC [1, 4]: 0.803 | IC50 [1, 4]: 3.63 µM | AUC [1, 5]: 0.84 | IC50 [1, 5]: > 5.12 µM | AUC [2]: 0.947 | IC50 [2]: > 10 µM | AUC [3]: 0.899 | IC50 [3]: > 10 µM

NCI-H630 (large intestine, adherent)
AUC [1, 4]: 0.973 | IC50 [1, 4]: > 5 µM | AUC [1, 5]: 0.931 | IC50 [1, 5]: > 5.12 µM | AUC [2]: 0.932 | IC50 [2]: > 10 µM | AUC [3]: 0.97 | IC50 [3]: > 10 µM
